Each structure is given as a SMILES string. Values joined by “and” are separate entries in the source; they are usually repeats but may differ in a detail not shown here. Identical values can stand only once.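 48-hour exposure; five concentrations; linearly interpolated endpoints. Here, GI50 denotes the concentration required for 50% inhibition of growth. TGI: concentration producing complete growth inhibition.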

The assay concerns NCI-H322M lung. The assay is described as follows: NCI-60 cell line screen, 48 h.

Turning to `Cc1ccc(C2NC(=S)N3C(c4ccc(C)cc4)NC(=S)N23)cc1` (centres undefined), the GI50 was 11.3 µM and the TGI was 24.9 µM. Regarding `COc1ccc(/C=c2\sc3nnc(CCC(=O)Nc4cccc(C(F)(F)F)c4)n3c2=O)cc1`, the TGI was more than 100 µM. Still for that read-out and setting: to `Nc1nc(NNc2ccccc2F)cc(=O)[nH]1` belongs more than 100 µM; to `Cc1ccc([S+](c2ccccc2)c2cc(C)ccc2C)cc1` (centres undefined), 34.6 µM. Take `CCOP(=O)(CCN1CCN(CCCCCOc2cc3c(cc2OC)C(=O)N2CCC[C@H]2C=N3)CC1)OCC`: the GI50 is 22.1 µM and the TGI stood at 56.2 µM. In the case of `COc1ccc(Oc2nc(Nc3ccc(N4CCOCC4)cc3)ncc2NC(=O)Nc2cc(OC)cc(OC)c2)cc1`, the GI50 was 2.17 µM and the TGI came out at 9.11 µM. In the case of `COc1ccccc1/C=C1\N=C(C)OC1=O`, the TGI is more than 100 µM.

Consider `Cc1cc(Br)c2nsnc2c1[N+](=O)[O-]`, for which the GI50 is 2.91 µM and the TGI is 10.4 µM. `O=C(Cc1nc2ccc(C(=O)c3ccccc3)cc2[nH]c1=O)C(=O)Nc1ccc(C(F)(F)F)cc1[N+](=O)[O-]` yielded a TGI of more than 100 µM. Same read-out and setting: to `c1ccc(-c2sc(-c3ccccc3)c3c2C2CCC3C2)cc1` belongs more than 100 µM.

Consider `O=C1CCCC(=O)N1n1c(Cc2ccc(Cl)cc2)n[nH]c1=O`, for which the TGI is more than 100 µM.

The compound `O=NN(CCCl)C(=O)Nc1ccc(Cl)c(Cl)c1` displayed a TGI of more than 100 µM.

`CCCC(=O)n1[nH]c(=O)n(C(C)(C)C)c1=O` displayed a TGI of more than 100 µM.

Compound `CC1(C)C(=O)CCC(=O)C(C)(C)C2=CC=C(O2)C(C)(C)C(=O)CCC(=O)C(C)(C)C2=CC=C1O2` came in with a TGI of more than 100 µM. Take `NS(=O)(=O)c1cccc(-c2cc3ccncc3cc2OCc2ccccc2)c1`: the GI50 is more than 23.3 µM and the TGI was more than 25 µM. The compound `O=C1CC(NCCCNC2CC(=O)c3c(Br)sc(Br)c32)c2c(Br)sc(Br)c21` (centres undefined) had a TGI of 14.4 µM. With `Nc1nc(Cl)cc(NCC2(CO)CC(c3ccccc3)C2)n1` (centres undefined), the TGI is more than 100 µM. Regarding `COc1ccccc1N(C(C)=O)C1=C(Cl)C(=O)c2ccccc2C1=O`, the GI50 is 3.26 µM and the TGI stood at 13.2 µM.

With `COc1cc(CC(C)N[C@@H](C)c2ccccc2)cc(OC)c1` (some centres undefined), the TGI was more than 100 µM. Turning to `Cc1ccc(C)c(NC(=O)C(=O)CC(=O)c2cccc3ccccc23)c1`, the TGI is more than 100 µM. For the compound `COc1cc(-c2ccc(Nc3ccccc3C(=O)O)c(OC)c2)ccc1Nc1ccccc1C(=O)O`, the TGI was more than 93.4 µM. Still for that read-out and setting: to `O=S1c2ccccc2N=C(c2ccc3ccccc3c2)CC1c1ccccc1F` (centres undefined) belongs more than 100 µM.

`O=NNc1ccc(Sc2ccc3ccccc3c2)cn1` had a TGI of more than 100 µM. `O=S(=O)(c1ccccc1)n1cnc(CCc2ccccc2)n1` yielded a TGI of more than 100 µM. In turn, `Nc1cccc(/C=C/CN2CCN(CCOC(c3ccccc3)c3ccccc3)CC2)c1` returned a TGI of 27.8 µM.

Compound `O=[N+]([O-])c1ccc(OP(=O)(O)OCC2OC(CP(=O)(O)O)C(O)C2O)cc1` (centres undefined) had a TGI of more than 100 µM. Still for that read-out and setting: to `Cc1ccc(S(=O)(=O)N/N=C2/C3C(CC2(C)C)C2(C)CCCC3(C)C2O)cc1` (centres undefined) belongs 44 µM; to `CCOC(=O)C(Cc1ccc2c(c1)CCC2)Cc1ccc2c(c1)CCC2`, more than 100 µM; to `COC(=O)C(=O)c1cc2ccccc2n1S(=O)(=O)c1ccccc1`, more than 100 µM. On the same count and under the same terms, the value for `CC1(Br)S(=O)(=O)OCCOS1(=O)=O` was more than 100 µM; that for `S=C1NCCN1C(=S)NC1CCCCC1` was more than 100 µM.

Regarding `C=C(C)C1Cc2c(cc(OC)c3c(=O)c4ccccc4n(C)c23)O1` (centres undefined), the TGI is more than 100 µM. As to `O=C(NC1CCNCC1)c1[nH]ncc1NC(=O)c1c(Cl)cccc1Cl`, the GI50 was 0.498 µM and 0.343 µM; the TGI was more than 29.3 µM. The compound `[O-]/N=N\c1on[n+](CCc2ccccc2)c1Cc1c(/N=N/[O-])on[n+]1CCc1ccccc1` showed a TGI of more than 100 µM.

In the case of `COc1ccc(C2=NNC(c3cc(Cc4ccc(O)c(C5CC(c6ccc(OC)cc6)=NN5)c4)ccc3O)C2)cc1` (centres undefined), the GI50 was 21.7 µM and the TGI was more than 100 µM.

With `CC(=O)c1c2c(cc3c1CC1(C3)Cc3ccc4c(c3C1=O)CCC4)CCC2` (centres undefined), the TGI is more than 100 µM.

The values are drawn from PubChem BioAssay (NCI).
